# Assay results published in PubChem BioAssay AID504832 (National Center for Advancing Translational Sciences (NCATS), 2011).
# The whole screen tested about 310,000 compounds, of which about 18,000 (5.8%) were called active. Inconclusive means that the source gave no clear call. Such entries were picked first, then a sample of the others. Calls come from the whole dose curve; as a rule, active = well fitted inhibition curve with a large enough effect; inconclusive = small, poorly fitted or top-dose-only effect, or another doubt; inactive = no such curve, though single readings can be large or run the other way. No potency is given beside an inconclusive call; the fits are too rough.
# Experiment: Primary qHTS for delayed death inhibitors of the malarial parasite plastid, 48 hour incubation
# Conditions: P. falciparum luciferase growth in erythrocytes; series mostly up to 28.7 µM; activity change, negative = inhibition: at the top concentration
# How it was run: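 Compounds are pin-transferred into medium, infected erythrocytes (2% hematocrit, 0.1% parasitemia final) are added, and plates sit one parasite generation at 37 C in 5% CO2. Detection reagent is then added and luminescence measured.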
# % is set by controls: 0 for no effect and ±100 for the full control effect; potency is the fitted concentration of half-maximal effect; tags give direction and shape of the fitted curve.
Compound,Potency,"activity change, negative = inhibition"
Oc1ccc(/C=N/Nc2ccnc3cc(Cl)ccc23)c(O)c1,active: 0.586 µM,–
O=C1c2cccc3cc([N+](=O)[O-])cc(c23)C(=O)N1CCN1CCCC1,active: 9.28 µM,–
O=C(O)c1ccccc1NN=C1CCCCC1,–,inactive: 123%
O=C(OCc1cccc(C(F)(F)F)c1)c1cc([N+](=O)[O-])ccc1N1CCOCC1,"inconclusive [inhibitor, single point]",–
COc1ccc(-c2cc3ccccc3n2CC(O)CNCCO)cc1 (centres undefined),"inconclusive [inhibitor, single point]",–
COc1ccc(S(=O)(=O)N(C)c2ccc(C(=O)Nc3cccnc3)cc2)cc1,"inconclusive [inhibitor, partial curve, poor fit]",–
N#CC1C(C#N)N2CCCN2C1c1ccc(Br)cc1 (centres undefined),"inconclusive [inhibitor, single point]",–
O=C(Nc1ccc([N+](=O)[O-])cc1)Nc1ccc([N+](=O)[O-])cc1,active: 2.69 µM,–
COc1ccc(NC(=O)N2CCCc3cccc(C)c32)cc1,–,inactive: -26.7%
CNC(=S)N(CCc1c(C)[nH]c2ccc(Cl)cc12)Cc1cccnc1,"inconclusive [inhibitor, partial curve, poor fit]",–
CN1CCCC(C(=O)c2ccc(-c3ccccc3)cc2)C1 (centres undefined),"inconclusive [inhibitor, single point]",–
COc1ccc(/C(O)=C2/C(=O)C(=O)N(CCN3CCOCC3)C2c2ccccn2)cc1 (centres undefined),–,inactive: 40.4%
CCC(C)(C)n1nnnc1C(c1ccc(C)cc1)N1CCCC1 (centres undefined),"inconclusive [inhibitor, single point]",–
Cn1nc(C(=O)Nc2ccc(S(=O)(=O)N3CCCCC3)cc2)ccc1=O,"inconclusive [inhibitor, partial curve, poor fit]",–
O=C(NC(NCc1ccccc1)C(Cl)(Cl)Cl)c1cccnc1 (centres undefined),–,inactive: -2.91%
COc1ccc(OC)c(CCNC(=O)CSc2ccsc2[N+](=O)[O-])c1,"inconclusive [inhibitor, single point]",–
O=C(CCOc1ccccc1)Nc1ccccc1,–,inactive: 16.9%
O=C(O)CCCC(=O)Nc1ccccc1SCCS(=O)(=O)c1ccc(Cl)cc1,–,inactive: 16.4%
Cc1cccc(NC(=S)NC(C)C(c2cccs2)N2CCN(C)CC2)c1C (centres undefined),"inconclusive [inhibitor, partial curve]",–
Cc1ccccc1-c1nc(CN2CCC(C(=O)NCCCN3CCCC(C)C3)CC2)c(C)o1 (centres undefined),"inconclusive [inhibitor, full curve]",–
c1ccc2[nH]c(CCCCc3nc4ccccc4[nH]3)nc2c1,"inconclusive [inhibitor, partial curve, poor fit]",–
O=[N+]([O-])c1cc([N+](=O)[O-])c2nonc2c1Nc1ccccc1O,"inconclusive [inhibitor, single point]",–
O=C(CN1C(=O)c2ccccc2S1(=O)=O)c1ccc2c(c1)OCCCO2,"inconclusive [inhibitor, full curve]",–

Compound,Potency,"activity change, negative = inhibition"
CC(C)c1ccc(C2NC(=O)CCC2[N+](=O)[O-])cc1 (centres undefined),–,inactive: 15.1%
COc1ccccc1NC(=O)CN1CCN(c2ccccn2)CC1,"inconclusive [inhibitor, single point]",–
CC(=O)Nc1ccc(S(=O)(=O)NC2=C(N3CCN(c4ccc(F)cc4)CC3)C(=O)c3ccccc3C2=O)cc1,active: 0.738 µM,–
NNc1nc2c(-c3ccc(Cl)cc3)nnn2c2ccccc12,"inconclusive [inhibitor, single point]",–
O=C(NCc1ccccc1Cl)C1CCN(S(=O)(=O)c2ccc(-n3cnnn3)cc2)CC1,–,inactive: 11.6%
Cc1ccc(/C=C2\Oc3c(ccc(O)c3CN3CCN(CCO)CC3)C2=O)cc1,"inconclusive [inhibitor, full curve]",–
CCCN1CCC(N2CCN(c3ccc([N+](=O)[O-])cc3)CC2)CC1,"inconclusive [inhibitor, partial curve, poor fit]",–
COc1cc2ncnc(NCc3ccc(C)o3)c2cc1OC,"inconclusive [inhibitor, single point]",–
COC(=O)c1cccc(C(=O)N2CCC(CCC(=O)NCc3ccc(F)cc3)CC2)c1,"inconclusive [inhibitor, partial curve, poor fit]",–
COc1ccc(S(=O)(=O)N2CCCCCC2)cc1N(C)S(=O)(=O)c1ccc(Cl)cc1,"inconclusive [inhibitor, partial curve]",–
NC(=O)C1CCN(C2=C(NS(=O)(=O)c3ccccc3)C(=O)c3ccccc3C2=O)CC1,"inconclusive [inhibitor, single point]",–
O=c1cc(CSc2nnnn2-c2ccccc2)nc2scc(-c3ccccc3)n12,"inconclusive [inhibitor, partial curve]",–
CCCOC(=O)c1ccc(NC(=O)c2nc3nc(C)cc(C)n3n2)cc1,"inconclusive [inhibitor, partial curve]",–
Cn1c(SCC(=O)Nc2ccc(N3CCOCC3)c(Cl)c2)nnc1C(O)c1ccccc1 (centres undefined),"inconclusive [inhibitor, single point]",–
Cc1ccc(S(=O)(=O)N(C)c2ccc(OCC(=O)Nc3nc4ccccc4s3)cc2)cc1,active: 4.65 µM,–
CCC1CCCCN1S(=O)(=O)c1ccc(NC(=O)c2snnc2C)cc1 (centres undefined),"inconclusive [inhibitor, single point]",–
O=C(COc1cccnc1[N+](=O)[O-])Nc1ncc(Cl)cc1Cl,"inconclusive [inhibitor, single point]",–
CC(C)C(=O)Nc1sc2c(c1C(N)=O)CCN(Cc1ccccc1)C2,–,inactive: 29.3%
O=C(CSc1nc(O)cc(=O)n1C1CCCC1)Nc1cccc(Cl)c1Cl,"inconclusive [inhibitor, partial curve, poor fit]",–
Oc1ccc(/C=C/c2nc(-c3ccccc3O)n(-c3ccccc3)n2)cc1,"inconclusive [inhibitor, single point]",–
CN(CC(=O)Nc1ccccc1Sc1ccccc1)Cc1nc2ccccc2c(=O)[nH]1,"inconclusive [inhibitor, single point]",–
O=C(COC(=O)CN=C1NS(=O)(=O)c2ccccc21)Nc1ccccc1OC(F)F,–,inactive: 0%
CCOC(=O)c1[nH]c2ccc(F)cc2c1NC(=O)C(C)N1CCc2cc(OC)c(OC)cc2C1 (centres undefined),active: 14.7 µM,–

Compound,Potency,"activity change, negative = inhibition"
COc1cccc(CC2(CO)CCN(C(=O)NC3CCCCC3)CC2)c1,"inconclusive [inhibitor, partial curve, poor fit]",–
CC(C)c1ccc(NC(=S)Nc2cccc3ccccc23)cc1,"inconclusive [inhibitor, single point]",–
Cc1ccc(NS(=O)(=O)c2ccc3c(c2)CC(=O)N3)cc1F,"inconclusive [inhibitor, single point]",–
Cc1nnc2c(NC3CCCCC3)nc3ccccc3n12,–,inactive: -17.2%
Cn1c(SCc2ccccc2[N+](=O)[O-])nnc1-c1cccnc1,–,inactive: 61.9%
CC(C)C(CCNCc1ccccn1)c1ccc(Cl)cc1 (centres undefined),"inconclusive [inhibitor, single point]",–
CN(CCc1ccccc1)C1CCCN(S(=O)(=O)CC(F)(F)F)C1 (centres undefined),–,inactive: -7.56%
O=C(/C=C/c1ccccc1)Nc1ccc(N2CCCCC2)cc1,–,inactive: 8.21%
CC(=O)NCCc1ccc(-c2csc(NC(=O)C3CC(=O)N(C4CCCC4)C3)n2)cc1 (centres undefined),"inconclusive [inhibitor, single point]",–
O=S(=O)(NCc1ccco1)c1ccc2c(c1)Cc1ccccc1-2,"inconclusive [inhibitor, single point]",–
O=C(c1ccc(Br)cc1)N1CCC(C(=O)N2CCN(c3ccccc3)CC2)CC1,"inconclusive [inhibitor, single point]",–
C/C(=N\NC(=O)C1(C)NC(C)(C)Cc2ccccc21)c1ccccc1 (centres undefined),"inconclusive [inhibitor, single point]",–
COC(=O)c1sc(NC(=O)c2ccncc2)nc1C,–,inactive: 50.4%
Cc1cc([N+](=O)[O-])nn1CC(=O)N/N=C/c1ccccc1O,"inconclusive [inhibitor, single point]",–
COc1cc(-c2[nH]nc3c2C(c2ccoc2)C(C#N)=C(N)O3)cc(OC)c1OC (centres undefined),"inconclusive [inhibitor, single point]",–
COc1ccc(-c2noc(CNS(=O)(=O)c3ccc(NC(C)=O)cc3)n2)cc1,–,inactive: 3.09%
CN(C)S(=O)(=O)n1cc(/C=C(\NC(=O)c2ccccc2Cl)C(=O)N2CCCC2)c2ccccc21,"inconclusive [inhibitor, single point]",–
COc1ccc2cc(C(=O)NCc3ccccc3CN3CCCC3)ccc2c1,active: 9.28 µM,–
O=C(c1cc(Cl)ccc1F)N1CCCC(Nc2ccc3c(c2)OCCO3)C1 (centres undefined),–,inactive: 2.29%
C/C(=N\NC(=S)Nc1cccc(C)c1)c1ccco1,"inconclusive [inhibitor, partial curve]",–
C=CCn1c(-c2ccc(S(=O)(=O)N3CCOCC3)cc2)csc1=Nc1ccccc1,"inconclusive [inhibitor, partial curve]",–
COc1ccc(CC(NC(C)=O)C(=O)NC2CCN(S(=O)(=O)c3ccccc3)CC2)cc1OC (centres undefined),–,inactive: 1.19%
CCOC(=O)c1ccc(NC(=S)N(CCCN2CCCCC2)Cc2ccco2)cc1,"inconclusive [inhibitor, partial curve]",–
